# PMC4242493
# This is one part of the list. The list includes weakly bound sequences.
# Target: MaxL homodimer (UniProt P61244)
# Assay: universal protein-binding microarray (PBM)
# Conditions: PBS-based mixture, 10 nM His-tagged protein dimer, 2% milk, 200 ng/uL BSA, 50 ng/uL salmon testes DNA, 0.02% TX-100; detection with Alexa 488 anti-His …; high values mean tight binding; most listed sequences are background and not binding sites; double strand, one strand shown
# Chain of UniProt P61244 (P61244 whole entry): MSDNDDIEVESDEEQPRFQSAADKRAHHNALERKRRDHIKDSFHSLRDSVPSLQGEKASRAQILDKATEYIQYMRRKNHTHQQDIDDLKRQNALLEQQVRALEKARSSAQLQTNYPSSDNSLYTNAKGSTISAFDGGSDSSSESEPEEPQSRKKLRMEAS
row,Sequence,binding signal (normalized occupancy)
1,CCTATTGA,0.0764
2,CGGTATAA,0.0815
3,ATTAGCGC,0.0772
4,AGTATATG,0.0859
5,CCACGAGC,0.0889
6,AGAGGCAC,0.0762
7,AAGTTCCT,0.0724
8,GAATCCCC,0.0773
9,ATCAATAG,0.0797
10,GTGTGTGA,0.0839
11,TGTTAAAA,0.0788
12,CTCTTGAC,0.0752
13,CAGAATTC,0.0734
14,CTTTCCTA,0.0729
15,ACTAGGAA,0.0729
16,AGCTGAGC,0.0651
17,AGCAATAC,0.079
18,CCGAAATA,0.0705
19,GCGTCACA,0.0822
20,ACTAGGTC,0.0719
21,CCAGGTCA,0.0739
22,CAGCAAAC,0.0788
23,AAGTTGCT,0.0701
24,AATGCCAA,0.0756
25,CCCGCGGC,0.067

row,Sequence,binding signal (normalized occupancy)
1,AAAATGTC,0.0794
2,ACACTCTA,0.074
3,GGGGTGAA,0.0785
4,GCCTTATA,0.0822
5,ATGGTTAA,0.0737
6,GAACGAGC,0.0745
7,ACGCCAAT,0.0803
8,AGCCGGAT,0.0694
9,CGCATGAG,0.0969
10,ACGTGTCC,0.0932
11,CACGTTCA,0.0904
12,GGGATTAA,0.0776
13,CGATCCAC,0.0843
14,AGACCGGG,0.0654
15,CCTCTAAA,0.0778
16,GTCGACAC,0.0728
17,CTCCATCC,0.0804
18,CCGGCTCC,0.0662
19,CCATACAG,0.0794
20,GCCATAGA,0.0739
21,TCGTGGCA,0.0869
22,GCTCACAC,0.0846
23,ACTTCCCA,0.0801
24,GACGCATA,0.0777
25,GAGAGAGC,0.0732

row,Sequence,binding signal (normalized occupancy)
1,AGATGTGA,0.085
2,AGACGGGA,0.0744
3,CTAAGAAG,0.0744
4,TACACTGA,0.0734
5,ACGATCGC,0.0709
6,CGCGAAGC,0.0677
7,CAGTTGGC,0.0723
8,CCAAGTGC,0.0678
9,ATAATGAT,0.0829
10,AAAGCATG,0.104
11,ACCAAGAA,0.0736
12,ATACCATC,0.0856
13,GGTGCCAC,0.0739
14,CTGATCAC,0.0776
15,CCCTAGCC,0.0744
16,AATATGCA,0.0847
17,TAGAACCA,0.0767
18,ATTGCTCG,0.0776
19,GCAGTAAA,0.0758
20,AGAAGCAT,0.0841
21,AGCTTCCG,0.068
22,AATCAGCA,0.0812
23,GCTTTCGA,0.067
24,AGCTGGAG,0.0708
25,ATTGGGGC,0.0771

row,Sequence,binding signal (normalized occupancy)
1,CACCGGCC,0.0709
2,GCAGTTCC,0.0712
3,CACGGCTA,0.0703
4,CACAGGAA,0.0754
5,CCCTCATA,0.0847
6,CTCAGAGA,0.0698
7,ACGTGCGC,0.113
8,GACGTACC,0.0761
9,CAATGACG,0.0749
10,CGCGTCGC,0.0637
11,AGGCCGAT,0.0714
12,CTATCGAA,0.0758
13,AACCATCC,0.0757
14,GAGGGTTA,0.0763
15,ATCTTCCG,0.0758
16,AATCTTAC,0.0743
17,AATGATGA,0.084
18,GAAGTAAA,0.0723
19,CACGCAGC,0.085
20,AGTAAGAA,0.0725
21,TCAGGGAA,0.0724
22,ACGGTGCA,0.0756
23,ATAGATAC,0.0866
24,GTACGGGA,0.0747
25,CGAAGGCG,0.0734

row,Sequence,binding signal (normalized occupancy)
1,ACCACTGG,0.0709
2,CAGTAGGA,0.0663
3,TATCGCCA,0.0743
4,ACCTAAAC,0.0721
5,GGTAACCA,0.0775
6,CACTGATG,0.0715
7,GTCACGGA,0.076
8,CACGACGG,0.0811
9,GGGTAGAA,0.0805
10,AGCGAGAC,0.068
11,ATCTCCGC,0.0705
12,CGTTCGAC,0.073
13,AAACCATC,0.0742
14,AAGTAGGG,0.0748
15,ACGTGGCG,0.107
16,ATCGAGAA,0.0738
17,AAAGGATG,0.078
18,CAACTAGA,0.0757
19,AGACCTGG,0.0738
20,CCGTACGC,0.072
21,AGAAAAGC,0.0685
22,CTCACCGA,0.0723
23,ACCCCTCC,0.0811
24,AGGAGAGC,0.071
25,AATAGGAT,0.0766

row,Sequence,binding signal (normalized occupancy)
1,GGCACCCA,0.0735
2,CTGTCCAA,0.0722
3,GGGTGTCA,0.074
4,CGGTGAAC,0.0739
5,CACGCACG,0.096
6,AACAGCGT,0.0788
7,ATCACACG,0.0937
8,AGAGAGGC,0.0704
9,GTTCGGTA,0.0727
10,TGGACAAA,0.0731
11,GCGAACAA,0.0729
12,CCCCGGAA,0.0711
13,CTTCCCCC,0.0849
14,GGGACCCA,0.077
15,TCCCTTCA,0.0708
16,AATTCGTG,0.0753
17,CAACGGCG,0.0721
18,AATGAGAG,0.0794
19,ATGTTCAC,0.083
20,GAAGCCTA,0.0741
21,AATTTGTC,0.0683
22,CGAACAAA,0.075
23,GGATACAC,0.0837
24,CCGATGGA,0.0694
25,GATGCTAC,0.081

row,Sequence,binding signal (normalized occupancy)
1,CAATGAAG,0.0754
2,AGTGTATG,0.0768
3,GTGTGCAA,0.0818
4,ATGTGTCG,0.0903
5,CAACTAAA,0.075
6,GCATGGCC,0.0963
7,ATGTACCA,0.0841
8,ACTAGTAG,0.075
9,AGCATGCT,0.134
10,ATCCTCCC,0.08
11,CAGCACGC,0.0982
12,GAAATTCA,0.0712
13,AAGTTTGC,0.0742
14,CCAGATGA,0.0784
15,CACGGGCA,0.081
16,TTGTCAAA,0.0728
17,TCGTATCA,0.0809
18,AGCGCGCC,0.0749
19,TGCGTGAA,0.0808
20,AGGTACCC,0.0689
21,CAGCCGTC,0.0668
22,GATAAGTA,0.0776
